The densities may have been worked out from excess volumes.
Assay: xn = mol fraction of the nth substance listed
Settings: 100 kPa

O + CC[n+]1ccn(C)c1.CS(=O)(=O)[O-]
Settings | mass density [kg/m3]
343.15 K, x2 = 0 | 977.8

CC[n+]1ccn(C)c1.CS(=O)(=O)[O-] + O
mass density [kg/m3]
Settings | 293.15 K | 298.15 K | 303.15 K | 308.15 K | 313.15 K | 318.15 K | 323.15 K | 328.15 K | 333.15 K | 343.15 K
x1 = 0.0181 | 1035.9 | – | 1032.4 | 1030.3 | 1028.2 | 1025.9 | 1023.4 | 1020.8 | 1018.1 | 1012.4
x1 = 0.0375 | 1067.8 | 1065.6 | 1063.3 | 1060.9 | 1058.5 | – | – | 1050.3 | 1047.4 | 1041.3
x1 = 0.056 | – | 1089.7 | – | 1084.5 | 1081.7 | 1078.9 | 1076 | 1073 | – | 1063.6
x1 = 0.0749 | 1112.5 | 1109.8 | 1107 | 1104.1 | 1101.2 | 1098.2 | 1095.1 | 1092 | 1088.8 | 1082.3
x1 = 0.0945 | 1130.6 | 1127.7 | 1124.7 | – | 1118.6 | – | 1112.3 | 1109.1 | 1105.8 | 1099.1
x1 = 0.113 | 1143.9 | 1140.9 | 1137.8 | 1134.7 | 1131.5 | 1128.3 | – | 1121.8 | 1118.4 | 1111.6
x1 = 0.1833 | 1180.5 | – | 1173.9 | 1170.6 | 1167.3 | – | – | 1157.2 | – | 1146.9
x1 = 0.2741 | 1205 | 1201.7 | 1198.3 | 1195 | 1191.7 | 1188.3 | 1184.9 | 1181.6 | 1178.2 | 1171.4
x1 = 0.3671 | 1218.9 | 1215.6 | 1212.2 | 1208.9 | 1205.6 | 1202.2 | – | – | – | 1185.5
x1 = 0.489 | – | 1226.7 | 1223.3 | 1220 | 1216.7 | 1213.3 | 1210 | 1206.7 | – | 1196.8
x1 = 0.6064 | 1236.6 | 1233.3 | – | – | 1223.2 | 1219.9 | – | 1213.3 | 1209.9 | –
x1 = 0.6951 | 1240 | 1236.6 | 1233.2 | 1229.9 | 1226.6 | – | 1219.9 | 1216.6 | 1213.3 | 1206.7
x1 = 0.7708 | 1242.5 | – | 1235.8 | 1232.4 | 1229.1 | 1225.7 | 1222.4 | 1219.1 | 1215.8 | –
x1 = 0.9157 | 1244.5 | 1241.2 | 1237.8 | 1234.4 | – | 1227.8 | 1224.4 | 1221.1 | 1217.8 | 1211.2
x2 = 0.0082 | 1244.5 | 1241.2 | 1237.8 | 1234.4 | 1231.1 | 1227.8 | 1224.4 | – | 1217.8 | 1211.3

From a compilation of properties of binary mixtures (doi:10.1021/acs.iecr.1c02970)
